# Laboratory results from PubChem BioAssay AID1347120 (National Center for Advancing Translational Sciences (NCATS), 2019).
# Screen size: about 390,000 compounds; about 930 (0.24%) were called active. The shares of active, inactive and inconclusive entries below differ from those in the screen. The call rests on the fitted dose curve; in most records, active means well fitted activation curve with a large enough effect; inconclusive means small, poorly fitted or top-dose-only effect; inactive means no such curve, though single readings can be large or run the other way. Potencies beside an inconclusive call are fits to weak or partial responses and may not hold up.
# Test: qHTS for Suppressors of FUS Proteinopathy: Primary screen using FUS-linked yeast assay; further: nearly all actives have a fitted effect of over 55% in size;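 on growth rescue (activation): plate controls were DMSO vehicle for no effect and reference control for full effect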
# Conditions: S. cerevisiae FUS-expressing, OD600, 24 h; Potency: growth rescue; growth rescue (activation): at 76.6 µM (top of the series)
# Outline: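 Galactose (2%) drives FUS expression in yeast precultured in raffinose; seeding density OD 0.005. Test compounds incubated 24hr at 30C and 99% humidity before absorbance at 600 nm was measured.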
# Potency means the concentration at half of the fitted maximal effect; tags describe the fitted curve by direction and shape.
SMILES,Potency,growth rescue (activation)
N#Cc1c(-c2ccc(F)cc2)noc1N,"inconclusive: 39.8 µM [activator, single point]",–
Clc1ccc(-n2c(SC/C=C/c3ccccc3)nnc2-c2cccnc2)cc1,"inconclusive: 20 µM [activator, single point]",–
Cn1cc(-c2coc3c(C(=O)NCc4cccc(Cl)c4)cccc23)cn1,"inconclusive: 31.6 µM [activator, single point]",–
O=C1OCC(c2ccccc2)=C1c1ccccc1,inactive,–
CCOc1ccc(NS(=O)(=O)c2ccc(NC(=O)C3CC3)cc2)cc1,inactive,–
CNc1ccc(Br)cc(C(=O)/C=C/c2ccc3c(c2)OCO3)c1=O,"inconclusive: 14.1 µM [activator, partial curve, poor fit]",–
CC1(C(=O)NS(=O)(=O)c2ccc(Cl)cc2)CCN1C(=O)Cc1cccc2ccccc12 (stereo not drawn),inactive,–
O=C(N/N=C/c1ccccn1)c1cc(-c2ccc(Br)cc2)nc2ccccc12,"inconclusive: 22.4 µM [activator, partial curve, poor fit]",–
CCc1c(C)n([O-])c2c([n+]1=O)CCC2,"inconclusive: 28.2 µM [activator, single point]",–
Cc1ccc(Cc2c(C)c(C#N)c3[nH]c4ccccc4n3c2=O)cc1,inactive,–
CCc1ccc(N2CC(C(=O)Nc3cccc(C(=O)NC4CC4)c3)CC2=O)cc1 (stereo not drawn),"inconclusive: 10 µM [activator, partial curve]",–
Cc1ccc(N2C(=O)[C@@H]3[C@H](C2=O)C2c4ccccc4C=CN2[C@@H]3C(=O)c2ccco2)cc1 (stereo partly drawn),–,inconclusive: 84.8% [activator]
COc1ccc(-c2cc(C(=O)N(C)Cc3nc4ccccc4c(=O)[nH]3)c3ccccc3n2)cc1OC,"inconclusive: 22.4 µM [activator, single point]",–
Cc1ccc(NS(=O)(=O)c2c(C(=O)N3CCC(C)CC3)c(C)n(C)c2C)cc1Cl,"inconclusive: 39.8 µM [activator, single point]",–
O=C(O)c1cc(=O)cc(C(=O)O)[nH]1,"inconclusive: 0.794 µM [activator, full curve, poor fit]",–
COc1ccc(C(C)(C)C)cc1NS(=O)(=O)c1cccc2cccnc12,"inconclusive: 25.1 µM [activator, single point]",–
Cc1cccc(C)c1-n1nnnc1C(c1ccnc2ccccc12)N(CCC#N)Cc1ccccc1 (stereo not drawn),"inconclusive: 39.8 µM [activator, single point]",–
CCn1cc2nc(SCC(=O)Nc3ccc(C)cc3C)n(Cc3ccc(C)cc3)c(=O)c2n1,inactive,–
COc1ccccc1C(=O)Nc1nc(-c2ccc(S(=O)(=O)N3CCOCC3)cc2)cs1,"inconclusive: 22.4 µM [activator, partial curve]",–

SMILES,Potency,growth rescue (activation)
CCOC(=O)Cc1csc(NC(=O)c2ccc3ncsc3c2)n1,inactive,–
Cc1ccc(OCc2nnc(SCC(=O)c3ccccc3)n2-c2ccccc2)cc1,"inconclusive: 56.2 µM [activator, partial curve, poor fit]",–
COc1ccc(-c2noc(CCC(N)=O)n2)cc1OC,"inconclusive: 50.1 µM [activator, single point]",–
CC1CC2=C(NC(=S)NC2c2ccccc2F)/C(=C/c2ccccc2F)C1 (stereo not drawn),"inconclusive: 15.8 µM [activator, partial curve, poor fit]",–
C=C(C)[C@@H]1CC2=C(OC)C(CC=C(C)C)(CC=C(C)C)C(=O)C(C(=O)c3ccccc3)=C2O1,"inconclusive: 35.5 µM [activator, single point]",–
COc1ccc(N=C2SC(CC(=O)Nc3ccccc3)C(=O)N2Cc2ccco2)cc1 (stereo not drawn),inactive,–
CC1CCN(CC(=O)c2c[nH]c3ccccc23)CC1,–,inconclusive: 75.8% [activator]
O=C(CSc1n[nH]c(-c2ccncc2)n1)NC1CCS(=O)(=O)C1 (stereo not drawn),"inconclusive: 28.2 µM [activator, single point]",–
COc1ccc(C[C@H]2CN3C(=NC[C@@H]3Cc3ccc(O)cc3)N2CCNC(=O)c2ccc(C)c(Br)c2)cc1,"inconclusive: 28.2 µM [activator, partial curve, poor fit]",–
O=C(C1CCCN(c2ncnc3c2nc2n3CCCCC2)C1)N1CCN(c2cccc(Cl)c2)CC1 (stereo not drawn),"inconclusive: 22.4 µM [activator, single point]",–
O=C(c1ccco1)[C@@H]1[C@@H]2C(=O)N(c3ccc(F)cc3)C(=O)[C@@H]2[C@H]2C=Cc3ccccc3N21,"inconclusive: 25.1 µM [activator, partial curve]",–
C=CCCC(=O)Nc1nc(C)c(-c2csc(Nc3cccc(OC)c3)n2)s1,inactive,–
COc1ccc(NC(=O)N(C)[C@H]2C[C@H]3c4[nH]c5ccc(-c6ccc7c(c6)OCO7)cc5c4CCN3C[C@H]2[C@H](C)O)cc1,"inconclusive: 50.1 µM [activator, single point]",–
COC(=O)[C@]12C[C@H](CC(=O)NCCc3ccccc3OC)C(=O)N(CCc3ccc(OC)c(OC)c3)C1=C[C@H](C1CCCC1)O[C@@H]2C,"inconclusive: 14.1 µM [activator, partial curve, poor fit]",–
Cc1ccc(-n2c(=O)[nH]c3c(C(N)=O)nc(-c4ccc(C)o4)nc32)cc1,"inconclusive: 50.1 µM [activator, single point]",–
CC(=O)NC(c1ccc(C)cc1)c1cc([N+](=O)[O-])c2cccnc2c1O (stereo not drawn),"inconclusive: 5.62 µM [activator, single point]",–
Cc1cccc(NC(=O)c2nc[nH]c2C(=O)N[C@@H](CCCCNC(=O)OC(C)(C)C)C(=O)OC(C)(C)C)c1,"inconclusive: 11.2 µM [activator, partial curve]",–
C[C@@H]1CN([C@H](C)CO)C(=O)Cc2cc(NS(=O)(=O)c3ccc(Cl)cc3)ccc2O[C@H]1CN(C)Cc1ccc(C(F)(F)F)cc1,"inconclusive: 15.8 µM [activator, partial curve]",–
COc1cccc(CNC(=O)Cn2ncc3c4ccccc4n(Cc4ccccc4)c3c2=O)c1,inactive,–
